Measured values from PubChem BioAssay AID1159614 (National Center for Advancing Translational Sciences (NCATS), 2016).
Hit rate of the full screen: of about 45,000 compounds, about 65 (0.1%) were called active. The call rests on the fitted dose curve; in most records, active means well fitted activation curve with a large enough effect; inconclusive means small, poorly fitted or top-dose-only effect; inactive means no such curve, though single readings can be large or run the other way. Some of the results follow.

target: Galactocerebrosidase (Homo sapiens) (UniProt P54803); experiment: A Novel Cell-Based Assay to Identify Small Molecules for B -Galactocerebrosidase; details: 145M-Twi-hGALC-G270D cells (Twitcher mouse brain line with human GALC G270D), HMU-beta-Gal fluorescence, 48 h; series mostly up to 57.5 µM; activation: at the top concentration; further: 0% is about no effect; nearly all actives have a fitted effect of over 65% in size
Chain of UniProt P54803 (P54803 whole entry, looked up): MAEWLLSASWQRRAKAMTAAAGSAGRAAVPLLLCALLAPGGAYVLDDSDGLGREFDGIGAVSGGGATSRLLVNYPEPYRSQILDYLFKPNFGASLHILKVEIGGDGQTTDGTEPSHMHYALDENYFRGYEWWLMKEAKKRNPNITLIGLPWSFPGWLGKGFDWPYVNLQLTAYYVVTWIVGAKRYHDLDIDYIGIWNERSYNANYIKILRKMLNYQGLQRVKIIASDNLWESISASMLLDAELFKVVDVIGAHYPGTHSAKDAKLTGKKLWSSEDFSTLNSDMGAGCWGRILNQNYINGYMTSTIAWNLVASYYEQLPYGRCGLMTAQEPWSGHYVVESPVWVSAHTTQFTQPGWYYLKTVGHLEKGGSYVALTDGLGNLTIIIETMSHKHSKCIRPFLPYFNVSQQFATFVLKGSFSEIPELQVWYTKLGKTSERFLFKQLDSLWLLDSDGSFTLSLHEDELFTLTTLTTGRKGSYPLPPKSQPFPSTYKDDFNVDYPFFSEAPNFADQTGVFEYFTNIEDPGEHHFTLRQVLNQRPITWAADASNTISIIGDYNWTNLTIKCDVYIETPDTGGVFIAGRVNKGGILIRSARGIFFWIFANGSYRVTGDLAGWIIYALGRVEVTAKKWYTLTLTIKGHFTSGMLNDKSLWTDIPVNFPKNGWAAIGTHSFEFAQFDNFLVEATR
Method in brief: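 Brain-derived Twitcher mouse 145M-Twi cells stably expressing human GALC-G270D or wild-type GALC, treated live, then residual GALC activity read by fluorescence of HMU-b-Gal substrate (0.1 mM final) in citrate-phosphate buffer pH 5.2 with sodium taurocholate. Signal increase indicates enhancement.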

activation, inactive:
CCOC(=O)CC(NC(=O)c1cc2cc(Cl)ccc2oc1=O)c1ccc(C)cc1 (stereo not drawn) -0.931%
Cc1cc(C)cc(Oc2c(C(F)(F)F)oc3c(CN4CCCC(C)C4)c(O)ccc3c2=O)c1 (stereo not drawn) -8.5%
COc1ccccc1N1CCN(c2ccc3cc(S(=O)(=O)N4CCCCC4)ccc3n2)CC1 -13.8%
CCC(=O)Nc1sc2c(c1C(=O)Nc1ccc(OC)cc1)CCC(C(C)(C)C)C2 (stereo not drawn) 0.624%
CCc1ccc(NC(=O)C2CCN(c3nnc(-n4c(C)ccc4C)s3)CC2)cc1 -10.6%
CCOc1ccc(-c2cn(-c3ccc(OC)cc3)c(SCC(=O)Nc3ccccc3Cl)n2)cc1 -11.7%
COc1ccc(F)cc1S(=O)(=O)NCCc1csc(-c2ccc(Cl)cc2)n1 -10.8%
CC(=O)c1ccc(NC(=O)CSc2cn(CC(=O)N3CCCCC3)c3ccccc23)cc1 -9.93%
CCCC(=O)NCCc1nc2ccccc2n1Cc1c(F)cccc1Cl -12.8%
Cc1ccc(C)c(-n2nnc(-c3nc(-c4ccc(Cl)cc4)no3)c2N)c1 -18.3%
O=C(Nc1ccc(S(=O)(=O)N2CCC(c3nc4ccccc4s3)CC2)cc1)c1ccc(F)cc1 -3.81%
Cc1cc(C)c(S(=O)(=O)NCCc2cc3c(C)ccc(C)c3[nH]c2=O)c(C)c1 -14%
Cc1ccc(NC(=O)C2Cc3ccccc3N2C(=O)c2ccccc2)cc1Cl (stereo not drawn) -8.55%
NNC(=O)c1ccncc1 -3.09%
CN(C(=O)CCCOc1ccc2[nH]c(=O)ccc2c1)C1CCCCC1 -7.25%
N#Cc1ccc(C(=O)Nc2ccc(Cl)c(-c3nc4cc(Cl)ccc4o3)c2)c(F)c1 -27.9%
O=C(NCc1ccc2c(c1)CCN2C(=O)c1ccncc1)c1cccc(Cl)c1 -13.6%
COc1ccc(NC(=O)c2sc3nc(C)c(C(=O)Nc4ccc(C)cc4C)c(-c4ccc(Cl)cc4)c3c2N)cc1 -5.89%
COc1ccc(OC)c(NC(=O)CSC2=Nc3ccccc3C3=NC(CC(=O)NCc4ccco4)C(=O)N23)c1 (stereo not drawn) -12.7%
CCN(C(=O)c1nn(-c2ccc(OC)c(Cl)c2)c(=O)c2c1c1ccccc1n2C)c1cc(OC)ccc1OC -16.4%
COc1ccc(-c2nc3sc(CCNC(=O)C(=O)Nc4cc(C)cc(C)c4)c(C)n3n2)cc1 -4.72%
Cc1ccc(NC(=O)c2cccc(NC(=O)N3CCSc4ncccc43)c2)cc1Cl 1.99%
COc1ccc(N2CCN(C(=O)Cn3ncc4c3-c3cc(C)ccc3OC4)CC2)cc1 -8.34%
COc1cc(OC)cc(C(=O)Nc2cc(-c3nc4ccccc4s3)ccc2OC)c1 -6.3%
CCOc1ccc(NC(=O)CN(C)S(=O)(=O)c2ccc3c(c2)c(=O)n(C)c(=O)n3C)cc1 10.4%
Cc1ccc(C(=O)NCC(c2cccs2)S(=O)(=O)c2cccs2)cc1C (stereo not drawn) -18.4%
Cc1ccc(N2CCN(C(=O)CCc3c(C)nc4ncnn4c3C)CC2)c(C)c1 -28.9%
Cc1ccc(C)c(CN2C(=O)c3ccccc3Sc3ccc(C(=O)NC4CCCC4)cc32)c1 -11.8%
Cc1ccc(-n2ncc(C(=O)N3CCc4ccccc4C3)c2C2CCN(C(=O)OC(C)(C)C)CC2)cc1C -1.57%
COc1ccc(NC(=O)c2c(C)oc3ccc(O)c(CN4CCCC(C)C4)c23)cc1Cl (stereo not drawn) -14.8%
COc1cccc(CNC(=O)CSc2ncc(S(=O)(=O)c3ccc(C)c(Cl)c3)c(=O)[nH]2)c1 -17.6%
CCn1cc(C(=O)NCCc2ccc(OC)c(OC)c2)c(=O)c2cc(S(=O)(=O)N3CCc4ccccc4C3)ccc21 -8.06%
COc1ccc(-c2nc(CN3CCC(C(=O)NCCN(CC(C)C)CC(C)C)CC3)c(C)o2)cc1OC -8.93%
CC(C)(C)C(=O)OCc1cc(=O)n2nc(C3CCCCC3)sc2n1 -10.5%
COc1ccccc1-c1noc(-c2ccc(NCCc3ccccc3)c([N+](=O)[O-])c2)n1 -7.54%
CCS(=O)(=O)c1ncc(Cl)c(C(=O)N(Cc2ccccc2)Cc2ccco2)n1 -17.6%
CCc1ccc(NC(=O)Cn2c(=O)n(Cc3ccccc3)c(=O)c3oc4ccccc4c32)cc1 -16.7%
COc1ccc(NC(=O)CSc2nc3c(c(=O)[nH]2)CN(Cc2ccccc2)CC3)cc1Cl -14.1%
COc1cccc2cc(-c3nc(Cl)c4c5c(sc4n3)CC(C)CC5)c(=O)oc12 (stereo not drawn) -1.43%
COC(=O)c1ccccc1NC(=O)CN1C(=O)COc2ccccc21 -0.695%
Cc1ncc(CO)c2c1Oc1nc(-c3ccccc3F)nc(SCC(=O)N3CCCCC3)c1C2 -3.64%
CCc1ccc(NC(=O)c2cnn(-c3c(C)cccc3C)c2C2CCNCC2)cc1 -17.3%
CCOc1cc(C(=O)Nc2c(NC)c3ccccc3oc2=O)cc(OCC)c1OCC -21.4%
Cc1ccc(S(=O)(=O)c2cn(C)c3cc(N4CCCC4)c(F)cc3c2=O)c(C)c1 -11.9%
Cc1ccc(CCNc2nc3ccccc3c3nc(-c4ccccc4)nn23)cc1 -9.91%
Cc1oc(-c2ccc(Cl)cc2)nc1CSc1nnc(C)n2c1cc1sccc12 -5.98%
CCc1cccc(C)c1NC(=O)Nc1csc2c1CCCC2 -9.42%
Cc1ccc(C)c(NC(=O)CSc2nncn3c2cc2sccc23)c1 -2.75%
COc1ccc2sc(N(Cc3cccnc3)C(=O)c3ccco3)nc2c1 -10.8%
O=C1CN(C(=O)c2ccccc2)C(c2ccc(F)cc2)c2cc(Br)ccc2N1 (stereo not drawn) -7.88%
COc1ccc(CN2C(=O)N(c3ccc(F)cc3)C(=O)C2CC(=O)Nc2ccccc2)cc1 (stereo not drawn) -9.26%
CCn1c(=O)cc(OCC(=O)NCc2ccc(F)cc2Cl)c2ccccc21 1.91%
CCOc1ccc(N2CC(c3nc4ccccc4n3CCC3CCCCC3)CC2=O)cc1 (stereo not drawn) -17.5%
CCCNC(=O)C1CCN(c2cc(C)nc3c(-c4ccc(OC)c(OC)c4)c(C)nn23)CC1 -9.71%
CCOC(=O)c1ccc(N2C(=O)c3[nH]nc(-c4ccc(OC)cc4)c3C2c2ccc(C)cc2)cc1 (stereo not drawn) -10.7%
COC(=O)c1cc(NC(=O)Cn2ncc3c2-c2ccccc2OC3)cc(C(=O)OC)c1 6.23%
COc1ccc(-c2noc(-c3ccc(NC4CCCCC4)c([N+](=O)[O-])c3)n2)cc1OC -5.85%
O=C(NCCc1c[nH]c2ccccc12)Nc1ccccc1C(F)(F)F -27%
N#Cc1ccccc1CSc1nnc(-c2ccccc2)o1 -10.2%
Cc1ccc(-n2c(=O)c3c(C)c(C)sc3n(CC(=O)c3ccc(Cl)cc3)c2=O)cc1C 2.43%
COc1cc(Nc2ncnc3onc(-c4ccc(Cl)cc4)c23)cc(OC)c1 -23.2%
COc1cc(C(=O)Nc2ccc(OCc3cc(=O)n4ccc(C)cc4n3)cc2)cc(OC)c1OC -15.4%
CCCn1c2ccccc2c2cnn(CC(=O)N(CCCOC(C)C)Cc3ccco3)c(=O)c21 9.1%
Cc1cccc(N2CCN(S(=O)(=O)c3c(C)[nH]c(=O)[nH]c3=O)CC2)c1C -1.46%
N#Cc1c(C(F)(F)F)cc(-c2cccs2)nc1SCC(=O)Nc1ccc(Cl)cc1 -14.8%
Cc1ccn2c(Nc3ccc4c(c3)OCO4)c(-c3ccco3)nc2c1 -9.69%
COc1ccc(N2CCN(C(CNS(=O)(=O)c3c(C)cc(C)cc3C)c3ccco3)CC2)cc1 (stereo not drawn) -10.9%
COc1ccc2c(C)cc(SCC(=O)Nc3nsc(-c4ccc(C(C)(C)C)cc4)n3)nc2c1 -23.3%
C[C@H]1C[C@H]2[C@@H]3CCC4=CC(=O)C=C[C@]4(C)[C@H]3C(=O)C[C@]2(C)[C@@]1(O)C(=O)CO -5.37%
COc1cc(NC(=O)CCCSc2nc(-c3ccco3)cc(C(F)(F)F)n2)cc(OC)c1OC 3.27%
CC1(C)O[C@@H]2C[C@H]3[C@@H]4C[C@H](F)C5=CC(=O)CC[C@]5(C)[C@H]4[C@@H](O)C[C@]3(C)[C@]2(C(=O)CO)O1 -5.9%
CCC(Cc1ccccc1)NC(=O)c1csc2c1CCCCC2 (stereo not drawn) 16.8%
COc1cccc(Cn2c(SCc3ccc(C(=O)N4CCC(C)CC4)cc3)nc3ccncc32)c1 2.05%
COc1ccc(CNC(=O)CN2CCSc3ccccc32)c(OC)c1 -13.8%
CCN(CC)C(=O)Cn1c(SCC(=O)Nc2ccc(C)c(C)c2)nc2ccccc21 -7.33%
COc1ccccc1NC(=O)C1=C(C)Nc2ncnn2C1c1ccc[nH]1 (stereo not drawn) -8.35%
O=C(Cn1c(=O)oc2ccccc21)NCc1ccc(Cl)cc1 -10.2%
CCOC(=O)c1c(Nc2ccccc2)nnc(-c2ccccc2)c1-c1ccccc1 -7.56%
CCN(c1ccccc1)S(=O)(=O)c1cc(C(=O)Nc2ccc(Br)cc2)ccc1F -10%
CC(C)(C)OC(=O)N1CCC(c2c(C(=O)NCCN3CCOCC3)cnn2-c2ccccc2)CC1 -8.96%
COc1ccc2oc(-c3ccc(C)c(NC(=O)c4ccc(N5CCCCC5)c([N+](=O)[O-])c4)c3)nc2c1 -11.1%
Cc1ccccc1C(=O)Nc1ccccc1C(=O)OCc1cc(=O)n2nc(C3CC3)sc2n1 -14.1%
COc1cccc(C(=O)Nc2ccc3c(c2)CCCN3C(=O)c2cccs2)c1OC -18.6%
CCc1ccc(-n2c(=O)c3cccnc3n2CC(=O)N(CC)c2cccc(C)c2)cc1 -19.2%
Cc1ccc(NC(=O)CN2C(=O)C(c3ccccc3)=NC2(C)C)cc1C -5.7%
CCOc1ccc(S(=O)(=O)n2nc(C)c(S(=O)(=O)N3CCCCCC3)c2C)cc1 -8.1%
Cc1cc2oc(C(=O)N(Cc3ccccc3)C3CCS(=O)(=O)C3)cc(=O)c2cc1C (stereo not drawn) -7.38%
Cc1ccc(-n2ncc3c(NCCc4ccccc4)ncnc32)cc1 -1.25%
CN1CCN(c2ncc3c(n2)CCN(Cc2ccccc2Cl)C3)CC1 -8.78%
CCc1ccc(NC(=O)CSc2nnc(-c3nonc3NC(C)=O)n2-c2ccccc2)cc1 -11.1%
CCOc1ccc(Nc2c(S(=O)(=O)c3ccc(C)cc3)cnc3ccccc23)cc1 -21.4%
Cc1c2cnn(-c3ccccc3)c(=O)c2c(C)n1CC(=O)NCc1ccc(Cl)cc1 -9.62%
Cc1[nH]c(C)c(Cl)c(=O)c1Cl -16.9% [at 23.8 µM]
